Measured values published in PubChem BioAssay AID2147 (National Center for Advancing Translational Sciences (NCATS), 2009).
Among all 230,000 compounds or so, about 3,600 (1.6%) were called active. The inconclusive results got no clear call from the source; some entries with a clear call stand among them for comparison. Calls come from the whole dose curve; as a rule, active = well fitted inhibition curve with a large enough effect (not every such curve was filed as active); inconclusive = small, poorly fitted or top-dose-only effect, or another doubt; inactive = no such curve, though single readings can be large or run the other way. Where the call is inconclusive, the potency comes from a doubtful curve fit.

Target: Lysine-specific demethylase 4E (Homo sapiens) (UniProt B2RXH2)
UniProt B2RXH2, sequence (B2RXH2 whole entry, looked up, the tested form may be a part): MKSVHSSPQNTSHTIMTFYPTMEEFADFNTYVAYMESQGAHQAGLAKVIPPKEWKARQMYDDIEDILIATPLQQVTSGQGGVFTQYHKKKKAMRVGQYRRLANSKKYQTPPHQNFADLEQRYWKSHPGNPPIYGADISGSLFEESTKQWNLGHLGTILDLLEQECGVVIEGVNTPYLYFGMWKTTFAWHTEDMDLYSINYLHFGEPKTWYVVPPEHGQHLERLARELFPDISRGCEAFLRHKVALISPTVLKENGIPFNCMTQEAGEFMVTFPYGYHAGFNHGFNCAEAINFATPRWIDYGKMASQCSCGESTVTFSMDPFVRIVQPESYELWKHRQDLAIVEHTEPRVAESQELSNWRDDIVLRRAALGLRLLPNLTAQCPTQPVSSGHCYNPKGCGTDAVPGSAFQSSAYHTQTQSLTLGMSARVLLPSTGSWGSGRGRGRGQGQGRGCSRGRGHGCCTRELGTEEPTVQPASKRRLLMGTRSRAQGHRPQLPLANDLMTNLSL
Assay: qHTS Assay for Inhibitors of Human Jumonji Domain Containing 2E (JMJD2E)
Conditions: JMJD2E catalytic domain, FDH-coupled NADH fluorescence (FDH is formaldehyde dehydrogenase); series mostly up to 57.1 µM; activity change, negative = inhibition: at the top concentration
Note: nearly all actives have a fitted effect of over 50% in size.
Potency is the fitted concentration of half-maximal effect; tags give direction and shape of the fitted curve.
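Throughout, for activity change, negative = inhibition: 0% = wells with enzyme and -100% = buffer wells without enzyme.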

Structure (SMILES)	activity change, negative = inhibition	Potency
CCOCC(=O)Nc1nc2ccc(S(C)(=O)=O)cc2s1	inactive: 6.8%	
Cc1nnc(NC(=O)CSc2ccccn2)s1	inactive: 3.48%	
COc1ccc(-c2ccc3c(N)c(C(=O)c4cccc(OC)c4)sc3n2)cc1		inconclusive: 3.55 µM [inhibitor, full curve]
COC(=O)c1ccc(C(=O)NC(=S)Nc2nc3c(s2)CCCC3)cc1		inconclusive: 39.8 µM [inhibitor, single point]
NNC(=O)CSCc1nc(-c2ccc(Cl)cc2)cs1	inactive: 21.3%	
O=[N+]([O-])c1cccc(-c2cnc3ccccc3n2)c1	inactive: 0.519%	
Cc1ccc2cc(CN(Cc3cccs3)Cc3nnnn3CC3CCCO3)c(=O)[nH]c2c1C (stereo not given)		inconclusive: 28.2 µM [inhibitor, single point]
COc1ccc(/C=N\NC(=O)c2sc(N)nc2C)cc1OC		inconclusive: 39.8 µM [inhibitor, single point]
O=C(NCc1ccc(-c2nc3ccccc3s2)cc1)c1ccco1	inactive: 6.37%	
CCC(OC(=O)c1nsc(Cl)c1Cl)C(=O)NCc1ccco1 (stereo not given)	inactive: 3.6%	
COc1cc(/C=C/C(=O)OCC(=O)Nc2ccccc2Sc2ccc(Cl)cc2)ccc1O		inconclusive: 31.6 µM [inhibitor, partial curve]
CCC(=O)N1CCc2cc(S(=O)(=O)NCCCOC)ccc21	inactive: 2.97%	
N#Cc1ccc(Nc2ccccc2)c(N)c1		inconclusive: 31.6 µM [inhibitor, partial curve]
Cc1ccccc1-c1cncnc1NCCN1CCOCC1	inactive: -10.8%	
Cc1nnc(NC(=O)C2CCCN(c3ncccn3)C2)s1 (stereo not given)		inconclusive: 39.8 µM [inhibitor, single point]
O=C(Nc1nnc(-c2ccco2)s1)c1ccccc1		inconclusive: 35.5 µM [inhibitor, single point]
COc1ccc(/C=C\C(=O)Oc2cccc(/C=N/NC(=O)Cc3ccc(OC)c(OC)c3)c2)cc1		inconclusive: 31.6 µM [inhibitor, single point]
COc1ccc(-c2cc(=O)oc3c(C)c(O)c(CN(C)C)cc23)cc1		inconclusive: 28.2 µM [inhibitor, single point]
O=S(=O)(Nc1ccc(-c2nc3cccnc3s2)cc1)c1ccccc1F		inconclusive: 3.16 µM [inhibitor, full curve]
Cc1c(C(=O)N2CCCC2)nnn1-c1nonc1N	inactive: 0.834%	
Cc1ccc(C(=O)O)cc1-c1ccc(C=C2C(=O)c3ccccc3C2=O)o1		inconclusive: 3.98 µM [inhibitor, full curve]
O=C(Nc1ccc(Cl)cc1C(=O)Nc1ccc(Br)cn1)c1ccco1		inconclusive: 31.6 µM [inhibitor, single point]
Cc1csc(N/N=C/c2ccccn2)n1		inconclusive: 35.5 µM [inhibitor, single point]
COc1ccc(Cc2n[nH]c(=S)o2)cc1	inactive: 1.81%	
CCc1[nH]nc2c1C(Cc1ccccc1)C(C#N)=C(N)O2 (stereo not given)	inactive: -6.76%	

Structure (SMILES)	activity change, negative = inhibition	Potency
CCOC(=O)c1c(CN2CCN(C)CC2)oc2ccc(O)cc12		inconclusive: 39.8 µM [inhibitor, single point]
COC(=O)c1[nH]c2ccccc2c1NC(=O)CN1CCN(C/C=C/c2ccccc2)CC1		inconclusive: 31.6 µM [inhibitor, partial curve]
COc1ccc(NC(=S)Nc2cnc3ccccc3c2)c(OC)c1		inconclusive: 28.2 µM [inhibitor, partial curve]
c1ccc(-n2nnnc2SCc2cn3cccnc3n2)cc1		inconclusive: 25.1 µM [inhibitor, partial curve]
Cn1c2ccccc2c(=O)n2c(=O)c3ccccc3cc12	inactive: 0.104%	
O=C1c2ccccc2C(=O)C1c1ccc(O)cc1		inconclusive: 3.16 µM [inhibitor, full curve]
N#C/C(=C\c1ccc(OCc2ccccc2)cc1)C(N)=O		inconclusive: 39.8 µM [inhibitor, single point]
CC(=O)Cn1c2ccccc2n2nc(CCC(=O)O)c(=O)nc12		inconclusive: 28.2 µM [inhibitor, partial curve]
CCOc1ccc(/C(C)=N/NC(=O)Cn2nc([N+](=O)[O-])cc2C)cc1	inactive: -18.7%	
Nc1ccc(-c2cc(-c3cccc(N)c3)nc(-c3ccccc3)n2)cc1		inconclusive: 5.01 µM [inhibitor, single point]
Cc1cccc(N(Cc2cc3ccccc3[nH]c2=O)S(=O)(=O)c2ccccc2)c1		inconclusive: 35.5 µM [inhibitor, single point]
O=C1CN(C(=O)COC(=O)c2ccc[n+]([O-])c2)c2ccccc2N1	inactive: -13.4%	
CN(C)c1nc(N(C)C)nc(N(C#N)CN2C(=O)c3ccccc3S2(=O)=O)n1	inactive: 2.56%	
C[C@@H](C(=O)Nc1ccc2ccccc2c1)[C@H]1C[C@]1(C)[C@H](NC(=O)OCc1ccccc1)c1ccccc1		inactive
COc1ccc(-n2cnnc2SCC(=O)Nc2cc(C)on2)cc1	inactive: -5.48%	
CCOC(=O)c1csc(N)c1-c1ccc([N+](=O)[O-])cc1	inactive: 1.02%	
CC(C)Cn1c(N)c(C(=O)COC(=O)c2c(F)cccc2F)c(=O)n(C)c1=O	inactive: -21.4%	
O=C(/C=C/c1ccccc1Cl)c1ccccc(=O)c1O		active: 14.1 µM
CS(=O)(=O)N1CCc2cc(C(=O)N3CCOCC3)ccc21	inactive: 3.76%	
O=C(c1ccco1)N1N=C(c2cccs2)CC1c1ccc(F)cc1 (stereo not given)		inconclusive: 39.8 µM [inhibitor, single point]
COc1cc(/C=C/c2nc(-c3ccccc3O)n[nH]2)cc(OC)c1OC		inconclusive: 28.2 µM [inhibitor, partial curve]
CCc1ccc(OCC(O)CN2CCC(CN3C(=O)c4cccc5cccc(c45)C3=O)CC2)cc1 (stereo not given)	inactive: -2.78%	
COc1ccc2oc(C(=O)OCC(=O)/C(C#N)=C(\C)N)c(C)c2c1		inconclusive: 28.2 µM [inhibitor, partial curve]
COc1c(/C=N/NC(=O)c2ccccc2O)c(CCN(C)C(C)=O)cc2c1OCO2	inactive: 2.16%	
CCN1CCCC1CN(Cc1cc2ccc(C)cc2[nH]c1=O)C(=S)Nc1ccccc1C(=O)OC (stereo not given)		inconclusive: 39.8 µM [inhibitor, single point]

Structure (SMILES)	activity change, negative = inhibition	Potency
CCn1c(SCc2nc3scc(-c4ccccc4)c3c(=O)[nH]2)nnc1-c1cccs1	inactive: -1.9%	
Cc1cc(N2CCOCC2)nc2ccc(NC(=O)CCC(=O)N3CCCCC3)cc12		inconclusive: 31.6 µM [inhibitor, partial curve]
NS(=O)(=O)c1ccc(NC(=O)c2c(F)cccc2Cl)cc1	inactive: 8.97%	
COCCOCCn1c(/C=C/c2ccccc2)nc2ccccc21		inconclusive: 28.2 µM [inhibitor, partial curve]
COC(=O)CN(c1ccccc1F)S(=O)(=O)c1ccc(C)cc1		inconclusive: 39.8 µM [inhibitor, single point]
Cc1cc(C)c2nc(NNC(=O)c3ccc(S(=O)(=O)N4CCCCC4)cc3)sc2c1		inconclusive: 35.5 µM [inhibitor, single point]
COc1ccc(CCn2c(O)cc3nn(-c4nc5ccccc5s4)c(=O)c-3c2C)cc1		active: 28.2 µM
Cc1ccc(C2C(C#N)=C(N)Oc3cc(C)oc(=O)c32)o1 (stereo not given)	inactive: -12.8%	
CC(C)C[C@@H](CC(=O)N[C@@H](CCC(=O)O)CC(=O)O)NC(=O)[C@@H]1CNCC[C@H]1NC(=O)C[C@H](CCCN)NC(=O)C[C@H](CO)NC(=O)[C@@H]1CCCC[C@H]1N	inactive: 3.04%	
COC(=O)c1cc(OC)c(OC)cc1NC(=O)c1cccnc1		inconclusive: 35.5 µM [inhibitor, single point]
C=CCN(CC=C)c1nc2ccccc2nc1C(C#N)C(=O)OCCOC (stereo not given)		inconclusive: 20 µM [inhibitor, partial curve]
CCOC(=O)c1sc(NC(=O)Cc2ccc(F)cc2)nc1C		inconclusive: 25.1 µM [inhibitor, single point]
Brc1ccc(C2=CC(c3cccs3)n3ncnc3N2)cc1 (stereo not given)		inconclusive: 25.1 µM [inhibitor, partial curve]
COCCOC(=O)CSc1ncccc1-c1nc2cc(C)c(C)cc2[nH]1		inconclusive: 31.6 µM [inhibitor, partial curve]
COc1ccc(C2CC(c3cccs3)=NN2C(=O)CSc2nnnn2C)cc1OC (stereo not given)		inconclusive: 39.8 µM [inhibitor, single point]
CN(C)/C=N/c1sc2c(c1C#N)CCCCC2	inactive: -7.99%	
CNC(=O)c1cc(C(=O)c2ccc(C(F)(F)F)cc2F)c[nH]1		inconclusive: 39.8 µM [inhibitor, single point]
Cc1cccc2cc(C(c3nnnn3Cc3ccccc3)N3CCN(C)CC3)c(=O)[nH]c12 (stereo not given)		inconclusive: 39.8 µM [inhibitor, single point]
N#C/C(=C\c1cccnc1)C(=O)Nc1ccccc1		inconclusive: 39.8 µM [inhibitor, single point]
Cc1cc(O)c2c(c1O)C(=O)C(O)=C(O)C2=O		inconclusive: 31.6 µM [inhibitor, partial curve]
O=C(COC(=O)/C=C/c1ccco1)NCCc1ccccc1	inactive: 7.79%	
Cc1csc2c(N(C)CCO)ncnc12	inactive: -1.35%	
Cc1nc2ccc(NC(=O)N3CCN(c4ccccn4)CC3)cc2s1		inconclusive: 31.6 µM [inhibitor, partial curve]
Cc1oc(-c2cc(F)ccc2F)nc1CN1CCN(c2cnccn2)CC1		inconclusive: 28.2 µM [inhibitor, partial curve]
Cc1cc(Br)ccc1NCc1ccccn1		inconclusive: 39.8 µM [inhibitor, single point]
